# Experimental data from the supplement of paper PMC11876631.
# ± gives the standard deviation of the averaged measurements. Laboratory Escherichia coli strains with one amino-acid change in an essential protein, pooled on minimal glucose agar with carbenicillin or gentamicin at twice the control MIC (plus kanamycin and chloramphenicol for the plasmids), 48 h. Fold change of barcode share against drug-free plates; higher = less susceptible. Active = above 20 in both replicates (the paper's putatively resistant). '<' = one read or none on drug, '>' = one read or none on a drug-free plate. Shares are relative, so most strains fall below 1 when a few take over. Listed are strains with at least 15 reads on both drug-free plates, and hits; most hits rest on fewer reference reads. Replicate rank correlation about 0.5. Edits are read from barcodes.
# Target: Escherichia coli (laboratory strain)
# Assay: barcode share on antibiotic plates over drug-free plates; higher = less susceptible
# Description: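 A pool of E. coli strains, each edited to carry one amino-acid change in an essential protein, was grown for 48 h on minimal glucose agar with or without antibiotic; strain barcodes were sequenced; mean of two replicates.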
# [1] = antibiotic: carbenicillin, 2× MIC (3.1 µg/mL)
# [2] = antibiotic: gentamicin, 2× MIC (MIC 0.45 µg/mL)
Protein,fold change of barcode share [1],fold change of barcode share [2]
mreB V268Q (protein) MLKKFRGMFSNDLSIDLGTANTLIYVKGQGIVLNEPSVVAIRQDRAGSPKSVAAVGHDAKQMLGRTPGNIAAIRPMKDGVIADFFVTEKMLQHFIKQVHSNSFMRPSPRVLVCVPVGATQVERRAIRESAQGAGAREVFLIEEPMAAAIGAGLPVSEATGSMVVDIGGGTTEVAVISLNGVVYSSSVRIGGDRFDEAIINYVRRNYGSLIGEATAERIKHEIGSAYPGDEVREIEVRGRNLAEGVPRGFTLNSNEILEALQEPLTGIQSAVMVALEQCPPELASDISERGMVLTGGGALLRNLDRLLMEETGIPVVVAEDPLTCVARGGGKALEMIDMHGGDLFSEE,0.279 ± 0.044,0.00361 ± 0.0011
mreB V268D (protein) MLKKFRGMFSNDLSIDLGTANTLIYVKGQGIVLNEPSVVAIRQDRAGSPKSVAAVGHDAKQMLGRTPGNIAAIRPMKDGVIADFFVTEKMLQHFIKQVHSNSFMRPSPRVLVCVPVGATQVERRAIRESAQGAGAREVFLIEEPMAAAIGAGLPVSEATGSMVVDIGGGTTEVAVISLNGVVYSSSVRIGGDRFDEAIINYVRRNYGSLIGEATAERIKHEIGSAYPGDEVREIEVRGRNLAEGVPRGFTLNSNEILEALQEPLTGIDSAVMVALEQCPPELASDISERGMVLTGGGALLRNLDRLLMEETGIPVVVAEDPLTCVARGGGKALEMIDMHGGDLFSEE,0.18 ± 0.1,< 0.00542
mreB V271A (protein) MLKKFRGMFSNDLSIDLGTANTLIYVKGQGIVLNEPSVVAIRQDRAGSPKSVAAVGHDAKQMLGRTPGNIAAIRPMKDGVIADFFVTEKMLQHFIKQVHSNSFMRPSPRVLVCVPVGATQVERRAIRESAQGAGAREVFLIEEPMAAAIGAGLPVSEATGSMVVDIGGGTTEVAVISLNGVVYSSSVRIGGDRFDEAIINYVRRNYGSLIGEATAERIKHEIGSAYPGDEVREIEVRGRNLAEGVPRGFTLNSNEILEALQEPLTGIVSAAMVALEQCPPELASDISERGMVLTGGGALLRNLDRLLMEETGIPVVVAEDPLTCVARGGGKALEMIDMHGGDLFSEE,0.155 ± 0.024,< 0.00375
mreB V271Q (protein) MLKKFRGMFSNDLSIDLGTANTLIYVKGQGIVLNEPSVVAIRQDRAGSPKSVAAVGHDAKQMLGRTPGNIAAIRPMKDGVIADFFVTEKMLQHFIKQVHSNSFMRPSPRVLVCVPVGATQVERRAIRESAQGAGAREVFLIEEPMAAAIGAGLPVSEATGSMVVDIGGGTTEVAVISLNGVVYSSSVRIGGDRFDEAIINYVRRNYGSLIGEATAERIKHEIGSAYPGDEVREIEVRGRNLAEGVPRGFTLNSNEILEALQEPLTGIVSAQMVALEQCPPELASDISERGMVLTGGGALLRNLDRLLMEETGIPVVVAEDPLTCVARGGGKALEMIDMHGGDLFSEE,0.381 ± 0.12,0.00386 ± 0.0033
accA M114Q (protein) MSLNFLDFEQPIAELEAKIDSLTAVSRQDEKLDINIDEEVHRLREKSVELTRKIFADLGAWQIAQLARHPQRPYTLDYVRLAFDEFDELAGDRAYADDKAIVGGIARLDGRPVQIIGHQKGRETKEKIRRNFGMPAPEGYRKALRLMQMAERFKMPIITFIDTPGAYPGVGAEERGQSEAIARNLREMSRLGVPVVCTVIGEGGSGGALAIGVGDKVNMLQYSTYSVISPEGCASILWKSADKAPLAAEAMGIIAPRLKELKLIDSIIPEPLGGAHRNPEAMAASLKAQLLADLADLDVLSTEDLKNRRYQRLMSYGYA,0.331 ± 0.13,< 0.00375
mreB M272A (protein) MLKKFRGMFSNDLSIDLGTANTLIYVKGQGIVLNEPSVVAIRQDRAGSPKSVAAVGHDAKQMLGRTPGNIAAIRPMKDGVIADFFVTEKMLQHFIKQVHSNSFMRPSPRVLVCVPVGATQVERRAIRESAQGAGAREVFLIEEPMAAAIGAGLPVSEATGSMVVDIGGGTTEVAVISLNGVVYSSSVRIGGDRFDEAIINYVRRNYGSLIGEATAERIKHEIGSAYPGDEVREIEVRGRNLAEGVPRGFTLNSNEILEALQEPLTGIVSAVAVALEQCPPELASDISERGMVLTGGGALLRNLDRLLMEETGIPVVVAEDPLTCVARGGGKALEMIDMHGGDLFSEE,0.377 ± 0.0082,0.0984 ± 0.069
mreB M272W (protein) MLKKFRGMFSNDLSIDLGTANTLIYVKGQGIVLNEPSVVAIRQDRAGSPKSVAAVGHDAKQMLGRTPGNIAAIRPMKDGVIADFFVTEKMLQHFIKQVHSNSFMRPSPRVLVCVPVGATQVERRAIRESAQGAGAREVFLIEEPMAAAIGAGLPVSEATGSMVVDIGGGTTEVAVISLNGVVYSSSVRIGGDRFDEAIINYVRRNYGSLIGEATAERIKHEIGSAYPGDEVREIEVRGRNLAEGVPRGFTLNSNEILEALQEPLTGIVSAVWVALEQCPPELASDISERGMVLTGGGALLRNLDRLLMEETGIPVVVAEDPLTCVARGGGKALEMIDMHGGDLFSEE,0.178 ± 0.17,< 0.0142
mreB M272Q (protein) MLKKFRGMFSNDLSIDLGTANTLIYVKGQGIVLNEPSVVAIRQDRAGSPKSVAAVGHDAKQMLGRTPGNIAAIRPMKDGVIADFFVTEKMLQHFIKQVHSNSFMRPSPRVLVCVPVGATQVERRAIRESAQGAGAREVFLIEEPMAAAIGAGLPVSEATGSMVVDIGGGTTEVAVISLNGVVYSSSVRIGGDRFDEAIINYVRRNYGSLIGEATAERIKHEIGSAYPGDEVREIEVRGRNLAEGVPRGFTLNSNEILEALQEPLTGIVSAVQVALEQCPPELASDISERGMVLTGGGALLRNLDRLLMEETGIPVVVAEDPLTCVARGGGKALEMIDMHGGDLFSEE,0.302 ± 0.061,0.00622 ± 0.00063
mreC L17A (protein) MKPIFSRGPSLQIRLIAAVLVALGIIIADSRLGTFSQIRTYMDTAVSPFYFVSNAPRELLDGVSQTLASRDQLELENRALRQELLLKNSELLMLGQYKQENARLRELLGSPLRQDEQKMVTQVISTVNDPYSDQVVIDKGSVNGVYEGQPVISDKGVVGQVVAVAKLTSRVLLICDATHALPIQVLRNDIRVIAAGNGCTDDLQLEHLPANTDIRVGDVLVTSGLGGRFPEGYPVAVVSSVKLDTQRAYTVIQARPTAGLQRLRYLLLLWGADRNGANPMTPEEVHRVANERLMQMMPQVLPSPDAMGPKLPEPATGIAQPTPQQPATGNAATAPAAPTQPAANRSPQRATPPQSGAQPPARAPGGQ,0.534 ± 0.076,0.0128 ± 0.01
mreC L17W (protein) MKPIFSRGPSLQIRLIWAVLVALGIIIADSRLGTFSQIRTYMDTAVSPFYFVSNAPRELLDGVSQTLASRDQLELENRALRQELLLKNSELLMLGQYKQENARLRELLGSPLRQDEQKMVTQVISTVNDPYSDQVVIDKGSVNGVYEGQPVISDKGVVGQVVAVAKLTSRVLLICDATHALPIQVLRNDIRVIAAGNGCTDDLQLEHLPANTDIRVGDVLVTSGLGGRFPEGYPVAVVSSVKLDTQRAYTVIQARPTAGLQRLRYLLLLWGADRNGANPMTPEEVHRVANERLMQMMPQVLPSPDAMGPKLPEPATGIAQPTPQQPATGNAATAPAAPTQPAANRSPQRATPPQSGAQPPARAPGGQ,0.558 ± 0.15,< 0.00342
mreC L17Q (protein) MKPIFSRGPSLQIRLIQAVLVALGIIIADSRLGTFSQIRTYMDTAVSPFYFVSNAPRELLDGVSQTLASRDQLELENRALRQELLLKNSELLMLGQYKQENARLRELLGSPLRQDEQKMVTQVISTVNDPYSDQVVIDKGSVNGVYEGQPVISDKGVVGQVVAVAKLTSRVLLICDATHALPIQVLRNDIRVIAAGNGCTDDLQLEHLPANTDIRVGDVLVTSGLGGRFPEGYPVAVVSSVKLDTQRAYTVIQARPTAGLQRLRYLLLLWGADRNGANPMTPEEVHRVANERLMQMMPQVLPSPDAMGPKLPEPATGIAQPTPQQPATGNAATAPAAPTQPAANRSPQRATPPQSGAQPPARAPGGQ,0.407 ± 0.019,0.00774 ± 0.0068
mreC L17D (protein) MKPIFSRGPSLQIRLIDAVLVALGIIIADSRLGTFSQIRTYMDTAVSPFYFVSNAPRELLDGVSQTLASRDQLELENRALRQELLLKNSELLMLGQYKQENARLRELLGSPLRQDEQKMVTQVISTVNDPYSDQVVIDKGSVNGVYEGQPVISDKGVVGQVVAVAKLTSRVLLICDATHALPIQVLRNDIRVIAAGNGCTDDLQLEHLPANTDIRVGDVLVTSGLGGRFPEGYPVAVVSSVKLDTQRAYTVIQARPTAGLQRLRYLLLLWGADRNGANPMTPEEVHRVANERLMQMMPQVLPSPDAMGPKLPEPATGIAQPTPQQPATGNAATAPAAPTQPAANRSPQRATPPQSGAQPPARAPGGQ,0.0593 ± 0.00064,< 0.00645
mreC L17P (protein) MKPIFSRGPSLQIRLIPAVLVALGIIIADSRLGTFSQIRTYMDTAVSPFYFVSNAPRELLDGVSQTLASRDQLELENRALRQELLLKNSELLMLGQYKQENARLRELLGSPLRQDEQKMVTQVISTVNDPYSDQVVIDKGSVNGVYEGQPVISDKGVVGQVVAVAKLTSRVLLICDATHALPIQVLRNDIRVIAAGNGCTDDLQLEHLPANTDIRVGDVLVTSGLGGRFPEGYPVAVVSSVKLDTQRAYTVIQARPTAGLQRLRYLLLLWGADRNGANPMTPEEVHRVANERLMQMMPQVLPSPDAMGPKLPEPATGIAQPTPQQPATGNAATAPAAPTQPAANRSPQRATPPQSGAQPPARAPGGQ,0.379 ± 0.15,0.007948 ± 1.1e-05
